Experimental data taken from PubChem BioAssay AID504832 (National Center for Advancing Translational Sciences (NCATS), 2011).
The whole screen tested about 310,000 compounds, of which about 18,000 (5.8%) were called active. Inconclusive means that the source gave no clear call. Such entries were picked first, then a sample of the others. Calls come from the whole dose curve; as a rule, active = well fitted inhibition curve with a large enough effect; inconclusive = small, poorly fitted or top-dose-only effect, or another doubt; inactive = no such curve, though single readings can be large or run the other way. Potencies of inconclusive entries are left out as doubtful fits.

experiment: Primary qHTS for delayed death inhibitors of the malarial parasite plastid, 48 hour incubation; details: P. falciparum luciferase growth in erythrocytes; series mostly up to 28.7 µM
Procedure, shortened: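 First compound was added to culture medium, then infected red cells at 0.1% parasitemia and 2% hematocrit (final). After incubation at 37 C under 5% CO2, luciferase detection reagent was dispensed and light output recorded.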
Potency is the fitted concentration of half-maximal effect; tags give direction and shape of the fitted curve.

| SMILES | Potency |
| --- | --- |
| COc1ccc(NC(=S)N(CCCN2CCC(C)CC2)Cc2cccs2)cc1Cl | inactive |
| COc1cc([C@@H]2c3cc4c(cc3[C@@H](O)[C@@H](CO)[C@@H]2CO)OCO4)cc(OC)c1O[Si](C)(C)C(C)(C)C | active: 9.28 µM |
| NCCS | inactive |
| C=CCn1c2ccccc2c2nnc(SCCN3CCCCC3)nc21 | inconclusive [inhibitor, partial curve, poor fit] |
| COc1ccc(C(CCNCc2ccc(OC)c(OC)c2)c2ccc(F)cc2)cc1 (centres undefined) | active: 9.28 µM |
| CC(C)CC(COCc1ccc(Cl)cc1)N1CCN(C(=O)c2ccc(C(F)(F)F)cc2)CCC1=O (centres undefined) | inconclusive [inhibitor, single point] |
| CCOC(=O)C1=C(C)OC(N)=C(C#N)C1c1ccc(OC)c(CSc2ccccn2)c1 (centres undefined) | inactive |
| CCCCn1c(CN2CCN(c3cccc(Cl)c3)CC2)nc2c1c(=O)[nH]c(=O)n2C | inconclusive [inhibitor, partial curve] |
| CC1(C)CC(=O)c2sc(NS(=O)(=O)c3ccc([N+](=O)[O-])cc3)nc2C1 | inactive |
| COc1ccccc1CN1C[C@@H]2C[C@@H](c3ccccc3C)N3CCC[C@@]23C1=O | inconclusive [inhibitor, partial curve, poor fit] |
| O=C(OCc1cc2ccccc2[nH]c1=O)c1cccnc1 | inconclusive [inhibitor, partial curve] |
| CC1CN(C(=O)Cn2cc(SCC(=O)N3CCOCC3)c3ccccc32)CC(C)O1 (centres undefined) | inactive |
| NC(=O)c1cc(N2C(=O)C=CC2=O)ccc1Cl | active: 2.33 µM |
| CCN(CC(=O)NCc1cccs1)C(=O)c1cccc(S(=O)(=O)Nc2ccc(C)cc2)c1 | inactive |
| CC(=O)N1CC(C)Oc2ccc(S(=O)(=O)NC(CC(=O)O)c3ccccc3C)cc21 (centres undefined) | inactive |
| O=C(NNC(=S)Nc1ccccc1)Nc1ccccc1 | inactive |
| CCC(C(=O)NCc1ccc(F)cc1)N(Cc1ccco1)C(=O)c1snc(C(N)=O)c1N (centres undefined) | inconclusive [inhibitor, single point] |
| Cc1ccc(SCC(=O)OC(C)C(=O)Nc2ccc(S(N)(=O)=O)cc2)cc1C (centres undefined) | inconclusive [inhibitor, partial curve, poor fit] |
| COc1ccccc1N(CC(=O)NCCSCc1cccc(C)c1)S(=O)(=O)c1ccccc1 | inconclusive [inhibitor, partial curve] |
| O=c1c2ccccc2c(-c2ccc(F)cc2)nn1-c1ccc(C(F)(F)F)cc1 | inconclusive [inhibitor, single point] |
| COc1ccc(CCN(C(=O)C(F)(F)F)C(C(=O)NC2CCCC2)c2cccs2)cc1OC (centres undefined) | inconclusive [inhibitor, partial curve] |
| Cc1cc(C)c2c(N=NN3CCOCC3)[nH]nc2n1 | inactive |
| COc1ccccc1N1CCN(C2CCCN(S(=O)(=O)c3cccc(Cl)c3)C2)CC1 (centres undefined) | inconclusive [inhibitor, partial curve, poor fit] |
| COc1ccc(C(=O)Nc2cccc(S(C)(=O)=O)c2)cc1OC | inactive |
| COc1cc(/C=N/NC(=O)Cn2nnc3ccccc32)ccc1O | inactive |

| SMILES | Potency |
| --- | --- |
| O=C(Nc1nc2ccccc2[nH]1)NC1CCCCC1 | inactive |
| O=C(CSc1ccccc1)Nc1ccc2c(c1)C(=O)NC2=O | inactive |
| Cc1ccc(-c2c[n+](Cc3ccc(Cl)c(Cl)c3)c3n2CCC3)cc1 | active: 1.65 µM |
| NC(N)=Nc1ccc2[nH]c3c(c2c1)C[C@@]1(O)[C@H]2Cc4ccc(O)c5c4[C@@]1(CCN2CC1CC1)[C@H]3O5 | inconclusive [inhibitor, partial curve, poor fit] |
| COc1ccc(C2C=C(c3ccc(C)cc3)Nc3ncnn32)cc1 (centres undefined) | active: 11.7 µM |
| COc1cc(Nc2ccc(S(=O)(=O)N3CCN(C)CC3)cc2[N+](=O)[O-])cc(OC)c1 | inconclusive [inhibitor, partial curve] |
| CC(C)(C)c1ccc(OCC(=O)N2CCN(C=O)CC2)cc1 | inactive |
| CNCC(O)Cn1c2c(c3ccccc31)CCCC2 (centres undefined) | active: 10.4 µM |
| CC(C)n1c(N2CCN(C(=O)Nc3ccc(F)cc3F)CC2)nc2ccccc21 | inconclusive [inhibitor, partial curve] |
| OCCC1CN(Cc2cc3c(cc2Cl)OCO3)CCN1Cc1ccccc1 (centres undefined) | inconclusive [inhibitor, partial curve] |
| CC(C)(C)c1ccc(OCCNC(=S)NC(=O)c2cccnc2)cc1 | inconclusive [inhibitor, single point] |
| Oc1[nH]c2ccccc2c1N=Nc1nncc2ccccc12 | inconclusive [inhibitor, single point] |
| NS(=O)(=O)c1ccc(NC(=S)NCc2ccccc2Cl)cc1 | inactive |
| CCCCn1nc(C(=O)N[C@@H](CCSC)c2nc3ccccc3[nH]2)c2ccccc2c1=O | inconclusive [inhibitor, single point] |
| CCOc1ccc(NC(=O)CC2C(=O)N(C)C(=S)N2Cc2ccco2)cc1 (centres undefined) | inconclusive [inhibitor, partial curve] |
| Nc1cccc(NC(=O)c2ccco2)c1 | inactive |
| CCc1c(C)sc(NC(=S)N2CCN(S(C)(=O)=O)CC2)c1C(=O)OC | inactive |
| c1ccc2c(-c3[nH]ncc3CNCCCn3ncc4ccccc43)cccc2c1 | active: 14.7 µM |
| CC1(c2ccc3c(c2)OCCCO3)NC(=O)N(CC(=O)NCCc2ccccc2)C1=O (centres undefined) | inconclusive [inhibitor, partial curve] |
| C=CCC1=C/C(=C\c2c(N)n3nc(CC(=O)N4CCOCC4)sc3nc2=O)C=C(OC)C1=O | inconclusive [inhibitor, partial curve, poor fit] |
| O=C(NCc1ccccc1)/C(=C/c1ccco1)NC(=O)c1ccco1 | inconclusive [inhibitor, single point] |
| NC(=O)CN1CCN(S(=O)(=O)c2ccc(Br)cc2)CC1 | inconclusive [inhibitor, single point] |
| Cn1cncc1C#Cc1c(C=O)n(C)c2ccccc12 | active: 11.7 µM |
| CN1C(C(=O)Nc2ccccn2)=C(O)c2ccccc2S1(=O)=O | inconclusive [inhibitor, single point] |
| CCOC(=O)C1=CC[C@H]2c3c(c4ccccc4n3C)C(=O)C1N2S(=O)(=O)c1ccc(C)cc1 | inconclusive [inhibitor, single point] |

| SMILES | Potency |
| --- | --- |
| CCC(C(=O)Nc1ncc(C)s1)c1ccccc1 (centres undefined) | inconclusive [inhibitor, partial curve] |
| Cc1cc2c(cc1S(=O)(=O)N1CCc3ccccc31)NC(=O)CO2 | inactive |
| CC(=O)c1ccc(S(=O)(=O)Nc2ccc(C(=O)NCC(c3ccccc3)N(C)C)cc2)cc1 (centres undefined) | inconclusive [inhibitor, single point] |
| CC(C)Cn1c(N)c(C(=O)COC(=O)c2ccc(Cl)cc2)c(=O)n(C)c1=O | inconclusive [inhibitor, single point] |
| O=C(NCC(=O)N1CCN(c2ccccc2)CC1)c1cccs1 | inactive |
| COc1ccc(Cc2nnc(Nc3c(C)cccc3C)o2)cc1OC | inconclusive [inhibitor, single point] |
| O=C1/C(=C/c2ccco2)SC(=S)N1CC1CCCO1 (centres undefined) | inactive |
| CCOc1cc(-c2nnc(NC(=O)c3ccco3)o2)cc(OCC)c1OCC | inconclusive [inhibitor, partial curve, poor fit] |
| CCOc1ccccc1C(=O)Nc1cc2c(cc1N1CCCC1)n(CC)c(=O)n2CC | inconclusive [inhibitor, partial curve, poor fit] |
| Cc1ccc(-c2nc3ccccc3[nH]2)cc1NC(=S)NC(=O)c1ccccc1Br | inconclusive [inhibitor, partial curve, poor fit] |
| COc1ccc2nc(NC(=O)c3sc4nc(C)cc(C)c4c3N)sc2c1 | inactive |
| CCCCC(c1nnnn1CCOC)N1CCN(C(=O)c2ccco2)CC1 (centres undefined) | inactive |
| Cc1ccc(N2C(=O)C3CCCN3C2=S)c(C)c1 (centres undefined) | inconclusive [inhibitor, single point] |
| CNC(=S)NNC(=O)CSCc1c(Cl)cccc1Cl | inactive |
| CCC(=O)N1CCN(c2ccc(NC(=O)COc3ccc(C)cc3C)cc2)CC1 | inconclusive [inhibitor, single point] |
| Cc1nnc(SCC(=O)c2ccc([N+](=O)[O-])cc2)s1 | inactive |
| Nc1nc(Br)c2ccccc2c1-c1ccccc1 | inconclusive [inhibitor, single point] |
| CCCc1nn(CCc2ccccn2)c(N)c1CC | inactive |
| O=C(/C=C/c1ccc([N+](=O)[O-])cc1)NCc1ccccn1 | inactive |
| Cc1cc([N+](=O)[O-])ccc1NC(=O)Nc1ccc(F)cc1F | inconclusive [inhibitor, single point] |
| C=CCn1c(SCC(=O)Nc2cc(C)ccc2C)nnc1-c1cnccn1 | inconclusive [inhibitor, single point] |
| S=c1[nH]c2ccc(Cl)cc2[nH]1 | inactive |
| CN(C)S(=O)(=O)c1ccc(S(=O)(=O)N(CC(=O)Nc2ccccc2)Cc2ccco2)cc1 | inactive |
| CCOc1ccc(CCNC(=O)CCS(=O)(=O)c2ccc(Cl)cc2)cc1OCC | inactive |
